This is an account of results in the RNAGym collection of RNA variant scans (doi:10.1073/pnas.2313332121).

This sample is rich in variants without activity.

The chains are these.
B1: TPR 5TU (parent)
chain: GGAUCUUCUCGAUCUAACAAAAAAGACAAAUCUGCCACAAAGCUUGAGAGCAUCUUCGGAUGCAGAGGCGGCAGCCUUCGGUGGCGCGAUAGCGCCAACGUUCUCAACUAUGACACGCAAAACGCGUGCUCCGUUGAAUGGAGUUUAUCAUG

Variants of B1 are the subject of this data set. Nature of the data set: polymerase ribozyme fitness, log enrichment relative to wild type (log ratio); higher = more active; in vitro selection for triplet polymerase activity. In a few lines:
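Mutant libraries were PCR-built and transcribed for each subunit of a heterodimeric triplet polymerase ribozyme and selected for one round in triplicate at −7 °C, frozen, before gel excision of extended constructs and streptavidin-bead capture. Input and output libraries were Illumina-sequenced, keeping genotypes with ≥10 input reads and ≥1 read per output. Fitness is a logarithmic ratio of genotype to wild-type enrichment, in base 2, using inverse-variance-weighted replicate averages.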
With GGAUCUUCUCGAUCUAACAAAAUAGACAAAUCUGACACAAAGCUUGCGAGCAUCUUCGGAUGCAGAGGCGGCAGCCUUCGGUGGCGCGAUAGCGCCAACGUUCUCAACUAUGACACGCAAAACCCGUGCUCCGUUGAAUGGAGUUUAUCAUG [A23U C35A A47C G124C], the “polymerase ribozyme fitness (log ratio)” value was not above -4.2.
Next, GGAUCUUCUCGAUCUAACAAAAUAGACAAAUCUGCCACAAAGCUUGAGAGAAUCUUCGGAUGCAGAGGCGGCAGCCUUCGGUAGCGCGAUAGCGCCAACGUUCUCAACUAUGACACGCAAAACGCGUGCUCCGUUGAAUGGAGUUGAUCAUG [A23U C51A G83A U146G]: not above -4.2.
Next, GGAUCUUCUCGAUCUAACAAAAUAGACAAAUCUGCCACAAAGCUUGAGAGCGUCUUCGGAUGCAGAGGCGGCUGCCUUCGGUGGCGCGAUAGCGCCAACGUUCUCAACUAUGACACGCAAAACGCGUGCUCCGUUGAAUGGAGUUUAUCAUG [A23U A52G A73U]: not above -4.2; GGAUCUUCUCGAUCUAACAAAAUAGACAAAUCUGCCACAAAGCUUGAGAGCAUCUUCGGAUGCAGCGGCGGCAGCCUUCGGUGGCGCGAUAGCGUCAGCGUUCUCAACUAUGACACGCAAAACGCGUGCGCCGUUGAAUGGAGUUUAUCAUG [A23U A66C C95U A98G U130G]: not above -4.2.
Take GGAUCUUCUCGAUCUAACAAAAUAGACAAAUCUGGCACAAAGCUUGAGAGCAUCUUCGGAUGCAGAGGCGGCAGCCUUCGGUGGCGCGAUAGCGCCAACGUUCUCAACUAUGACACGCAAAACGCGUGCUCCGUUGAAUGGAGUUUAUCAUG [A23U C35G]: the “polymerase ribozyme fitness (log ratio)” value was not above -4.2.
With GGAUCUUCUCGAUCUAACAAAAUAGACAAAUCUGCUACACGGCUUGAGAGCAUCUUCGGAUGCAGAGGCGGCAGCCUUCGGUGGGGCGAUAGCGCCAACGUUCUGAACUAUGACACGCAAAACGCGUGCUCCGUUGAAUAGAGUUUAUCAUG [A23U C36U A40C A41G C85G C105G G140A], the “polymerase ribozyme fitness (log ratio)” value was not above -4.2.
With GGAUCUUCUCGAUCUAACAAAAUAGACAAAUCUGCCAUAAAGCUUGAGAGCAUCUUCGGAUGCAGAGGCGGCAGCCUUCGGUGGCGCGAUAGCGCCAACGUUCUCAACUAUGAUACGCAAAACGCAUGCUCCGUUGAAUGGAGUUUAUCAUG [A23U C38U C114U G126A] the figure was not above -4.2; with GGAUCUUCUCGAUCUAACAAAAUAGACAAAUCUGCCACAAAGUUUGAGAGCAUCUUCGCGUGCAGAGGCGGCAGCCUUCGGUGGCGCGAUAGCCCCAACGUUCUCAACUAUGACACGCAAAACGCGUGCUCCGUUGAAUGGAGUUUAUCAUG [A23U C43U G59C A60G G94C], not above -4.2; with GGAUCUUCUCGAUCUAACAAAAUAGACAAAUCUGACACAAGGCUUGAGAGCAUCUUCGGAGGCAGAGGCGGCAGUCUUCGGUGGCGCGAUAGCGCCAACGUUCUCAACUAUGACACGCAAAACGCGUGCUCCGUUGAAUGGAGUUUAUCAUG [A23U C35A A41G U61G C75U], not above -4.2.
As for GGAUCUUCUCGAUCUAACAAAAUAGACAAAUCUGCCACAAAGCUUGAGAGCCUCUUCGGAUGCAGAGGCGGCAGCCUUCGGUGGCGAGAUAGCGCUAACGUUCUCAACUAUGACACGCAAAACGCGUGCUCCGUUGAAUGGAGUUUAUCAUG [A23U A52C C87A C96U], the “polymerase ribozyme fitness (log ratio)” value is not above -4.2.
With GGAUCUUCUCGAUCUAACAAAAUAGACAAAUCUGCCACAAAGCUUGAGAGCAUCUUAGGAUGCAGGGGCGGCAGCCUUCGGUGGCGCGAUAGCGCCAACGUUCUCAUCUAUGACACGCAAAACGCGUGCUCCGUUGAGUGGAGUUCAUCAUG [A23U C57A A66G A107U A138G U146C] the figure was not above -4.2; with GGAUCUUCUCGAUCUAACAAAAUAGACAAAUCUGACACAAAGCUUGAGAGCAUCUUCGGAUGCAGAGGCGGCAGCCUUCGGUGGCGCGAUAGCGCCAACGUUCUCAACUAUGACACGCAAAACGCGUGCUCCGUUGAAUGGAGUCUAUCAUG [A23U C35A U145C], not above -4.2.
With GGAUCUUCUCGAUCUAACAAAAUAGACAAAUCUGUCACAAAGCUUGAGAGCAUCUUCCGAUGCAGAGGCGGCAGCCUUCGGUGGCGCGAUAGUGCCAACGUUCUCAACUAUGACACGCAAAACGCGUGCUCCGUUGAAUGGAGUUUAUCAUG [A23U C35U G58C C93U] the figure was not above -4.2.
With GGAUCUUCUCGAUCUAACAAAAUAGACAAAUCUGCCACAAAGCUUGAGAGCAUCUUAGGAUGCAGAGGCGGCAGCCUUCGGUGGGGCGGUAGCGCCAACGUUCUCAACUAUGACACGCAGAACGCGGGCUCCGUUGAAUGGAGUUUAUCAUG [A23U C57A C85G A89G A120G U127G] the figure was not above -4.2.
Regarding GGAUCUUCUCGAUCUAACAAAAUAGAGAAAUCUGCCUCAAAGCUUGAGAGCAUCUUCGGAUGCAGAGGCGGCAGCCUUCGGUGGCGCGAUAGCGGCAACGUUCUCAACUGUGACACGCAAAACGCGUGCUCCGUUGAAUCGAGUUUAUCAUG [A23U C27G A37U C95G A110G G140C], the “polymerase ribozyme fitness (log ratio)” value was -3.86.
GGAUCUUCUCGAUCUAACAAAAUAGACAAAUCUGCGACAAAGCUUGAGAGCAUCUUCGGAUGCAGAGGCGGCAGCCUUCGGUGGCGCGAUAACGCCAACGUUCUCAACUAUGACACGUAAAAAGCGUGCUCCGUUGAAUGGAGUUUAUCAUG [A23U C36G G92A C118U C123A]: the “polymerase ribozyme fitness (log ratio)” value is not above -4.2.
Next, GGAUCUUCUCGAUCUAACAAAAUAGACAAAUCUGCCACAAAGCUUGAGAGCAUCUUCGGAUGCAGAGGCGGCGGCCUUCGGUGGCGUGAUAGCGCCAACGUUCUAAACUAUGACACGCAAAACGCGUGCUCCGUUGAAUGGAGUUUAUCAUG [A23U A73G C87U C105A]: not above -4.2.
Next, GGAUCUUCUCGAUCUAACAAAAUAGACAAAUCUGCCACAAAGCUUGAGAGCAUCUUCGGAUGCAGAGGCGGCAGCCUUCGGUGGCGCGAUCGCGCCAACGUUCUCAACUAUGACACGCAAAACGCGUGCUCCGUUGAAUGGAGUUUAUCAGG [A23U A91C U151G]: not above -4.2; GGAUCUUCUCGAUCUAACAAAAUAGAUAAAUCUGCCUCAAAGCUUGAGAGCAUCUUCGGAUGCAGAGGCGGCAGCCUUCGGUGGCGCGAUAGCGCCAACGUUCUCAACUAUGACACGCAAAACGCUUGCUCCGUUGAAUGGAGUUUAUCAUG [A23U C27U A37U G126U]: not above -4.2.
